{
  "source": "PubChem BioAssay AID686978",
  "about": "(National Center for Advancing Translational Sciences (NCATS), 2013)",
  "note": "The campaign covered roughly 420,000 compounds. About 64,000 (15%) were called active. Inconclusive means that the source gave no clear call. Such entries were picked first, then a sample of the others. Calls come from the whole dose curve; as a rule, active = well fitted inhibition curve with a large enough effect; inconclusive = small, poorly fitted or top-dose-only effect; inactive = flat fitted curve, though single readings scatter. Potencies of inconclusive entries are left out as doubtful fits. % is set by controls: 0 for no effect and ±100 for the full control effect; potency is the fitted concentration of half-maximal effect; tags give direction and shape of the fitted curve.",
  "data": [
    {"assay": "qHTS for Inhibitors of human tyrosyl-DNA phosphodiesterase 1 (TDP1): qHTS in cells in absence of CPT; note: nearly all actives have a fitted effect of over 55% in size", "conditions": "DT40 Tdp1-/- hTDP1 cells, no CPT, ATP luminescence, 48 h; activity change, negative = growth inhibition: at 46.2 µM (top of the series) unless noted", "procedure,_shortened": "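Cells were dispensed at 400 per well, compounds added by pin tool, plates incubated ≥48 hr at 37 °C, then CellTiter-Glo added for 30 min at room temperature before luminescence reading. Line: DT40 Tdp1-/- complemented with hTDP1; camptothecin omitted.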", "values": [
      {"smiles": "CCOc1cc2c(cc1C(C)(C)C)NC(=O)CS2", "Potency": "inconclusive [inhibitor, partial curve, poor fit]"},
      {"smiles": "CCCc1nn2c(=O)cc(COC(=O)c3ccc(NC(=O)C4CCCCC4)cc3)nc2s1", "Potency": "inconclusive [inhibitor, partial curve]"},
      {"smiles": "Cn1nc(C(C)(C)C)cc1NC(=O)C1(C)CCN1C(=O)Cc1ccc(-c2ccccc2)cc1", "note": "(stereo not given)", "Potency": "active: 18.4 µM"},
      {"smiles": "O=C(Nc1ncnc2sc3c(c12)CCCCC3)c1ccc(F)cc1", "Potency": "inconclusive [inhibitor, single point]"},
      {"smiles": "Cc1ncc(CN2CCCC(C(=O)Nc3ccc(-c4cccc(F)c4)cc3)C2)s1", "note": "(stereo not given)", "Potency": "inconclusive [inhibitor, single point]"},
      {"smiles": "Fc1ccc(-c2csc(=S)[nH]2)cc1", "Potency": "inconclusive [inhibitor, single point]"},
      {"smiles": "Nc1nc(SCCO)[nH]c(=O)c1NC(=O)c1ccccc1F", "Potency": "inactive"},
      {"smiles": "CNc1c([N+](=O)[O-])cnn1-c1ccc(C)cc1", "Potency": "inactive"},
      {"smiles": "OC[C@@H]1CN(Cc2ccco2)C[C@H](n2cnc3c(NCc4ccncc4)ncnc32)O1", "Potency": "inactive"},
      {"smiles": "CCN(C(=O)c1c(-c2ccccc2Cl)noc1C)C1CCCCC1", "Potency": "inconclusive [inhibitor, single point]"},
      {"smiles": "COc1cc(/C=C2/N=C(C3CCCCC3)OC2=O)cc(OC)c1OC", "Potency": "inactive"},
      {"smiles": "COc1cccc(NS(=O)(=O)c2ccc3c(c2)N(C)C(=O)CC(=O)N3C)c1", "Potency": "inactive"},
      {"smiles": "Oc1ccc(/C=N/Nc2cccc(Cl)n2)c(O)c1", "Potency": "inconclusive [inhibitor, single point]"},
      {"smiles": "CNc1ncnc2c1ncn2[C@H]1CN(Cc2cccc3ccccc23)C[C@@H](CO)O1", "Potency": "inconclusive [inhibitor, single point]"},
      {"smiles": "Nc1ccc(N2CCCCC2)cc1N1CCCCC1", "Potency": "inconclusive [inhibitor, single point]"},
      {"smiles": "CCOc1ccccc1N(C)C(=O)Cn1ncc2c([nH]c3ccc(C)cc32)c1=O", "Potency": "inconclusive [inhibitor, single point]"},
      {"smiles": "O=C(Nc1cccc(OC(F)(F)F)c1)C1Cc2c(-c3ccccc3Oc3ccccc3)ccnc2O1", "note": "(stereo not given)", "Potency": "inconclusive [inhibitor, single point]"},
      {"smiles": "Cc1nc(C(=O)NNC(=O)c2ccc(Cl)cc2)c(C(F)(F)F)o1", "Potency": "inconclusive [inhibitor, single point]"},
      {"smiles": "CCN1CCN(C(=O)/C=C/c2ccc([N+](=O)[O-])cc2)CC1", "Potency": "inactive"},
      {"smiles": "Cc1ccc(S(=O)(=O)NCc2nc3cccnc3n2Cc2ccccc2Cl)c(C)c1", "Potency": "inconclusive [inhibitor, single point]"},
      {"smiles": "Cc1ccc(C2(c3noc(CN(C)Cc4cccnc4)n3)CCCC2)cc1", "Potency": "inconclusive [inhibitor, single point]"},
      {"smiles": "COc1ccc(S(=O)(=O)N2CCOC2CNC(=O)C(=O)NCCCN2CCOCC2)cc1C", "note": "(stereo not given)", "Potency": "inactive"},
      {"smiles": "CCCC(=O)c1ccc(N2CCC(C)CC2)c(F)c1", "Potency": "inconclusive [inhibitor, single point]"},
      {"smiles": "CN1CCN(c2ccc3c(c2)OC[C@H](Cc2ccccc2)NS3(=O)=O)CC1", "Potency": "inconclusive [inhibitor, partial curve]"},
      {"smiles": "COC(=O)CC1COc2ccccc2N1C(=O)c1cc(OC)c(OC)c(OC)c1", "note": "(stereo not given)", "Potency": "inactive"},
      {"smiles": "Cc1nn(-c2ccccc2)c(C)c1/C=N/NC(=O)c1cc(-c2ccc(Cl)s2)[nH]n1", "Potency": "active: 4.11 µM"},
      {"smiles": "CCc1nnc2c(Nc3ccc(N(CC)CC)cc3C)nc3ccccc3n12", "Potency": "active: 18.4 µM"},
      {"smiles": "Cc1ccccc1-c1nccc(Nc2ccc(F)cc2)n1", "Potency": "inconclusive [inhibitor, single point]"},
      {"smiles": "O=C(Nc1ccccc1N1CCCC1)c1cccc(Cl)c1Cl", "Potency": "inconclusive [inhibitor, single point]"},
      {"smiles": "C/C=C\\C=C\\C(=O)Nc1cccc(C2=NOC3(C2)C[C@@H](C(N)=O)N(C(=O)C(c2ccccc2)c2ccccc2)C3)c1", "note": "(stereo not given in full)", "Potency": "inconclusive [inhibitor, single point]"},
      {"smiles": "O=S(=O)(Nc1ccc(Cc2ccncc2)cc1)c1ccc(Cl)c(Cl)c1", "Potency": "inconclusive [inhibitor, partial curve]"},
      {"smiles": "CCO[C@@H]1OC(C(=O)Nc2ccccc2)=C[C@H](c2ccc3c(c2)OCO3)[C@H]1CCCO", "Potency": "inconclusive [inhibitor, single point]"},
      {"smiles": "COc1cc(C(=O)OCC(=O)Nc2ccc(S(=O)(=O)NC3=NCCCCC3)cc2)cc(OC)c1OC", "Potency": "inconclusive [inhibitor, single point]"},
      {"smiles": "CCc1ccccc1NC(=O)N1CC(C)Sc2ccccc21", "note": "(stereo not given)", "Potency": "inconclusive [inhibitor, single point]"},
      {"smiles": "O=[N+]([O-])c1nc2ccccc2[nH]1", "Potency": "inactive"},
      {"smiles": "CC1Cc2ccccc2N1C(=O)CCn1cccn1", "note": "(stereo not given)", "activity change, negative = growth inhibition": "inconclusive: -27.4% [inhibitor]"},
      {"smiles": "NC(=S)N=Nc1c(O)n(CC(=O)Nc2ccccc2)c2ccccc12", "Potency": "inactive"},
      {"smiles": "Cc1cc(C(=O)OCC(=O)NC(C)c2ccc(F)cc2)c(C)o1", "note": "(stereo not given)", "Potency": "inactive"},
      {"smiles": "COc1ccc(C2=CSC3=NCCN23)cc1Cl", "Potency": "inconclusive [inhibitor, single point]"},
      {"smiles": "Cc1cc2c(cc1C)NC1(C[C@H]3CCC(=O)N4CC[C@@H](C1)[C@@H]34)C(=NC(C)(C)CC(C)(C)C)N2", "note": "(stereo not given in full)", "Potency": "active: 20 µM"},
      {"smiles": "C[C@]12CCC3C(CC[C@H]4CC(O)CC[C@]34C)C1CC/C2=N/O", "note": "(stereo not given in full)", "Potency": "inconclusive [inhibitor, partial curve]"},
      {"smiles": "O=C(Nc1ccc(Br)cc1F)N1CC=C(c2c[nH]c3ccccc23)CC1", "Potency": "active: 0.58 µM"},
      {"smiles": "O=C(COc1coc(CN2CCCc3ccccc32)cc1=O)Nc1ccccc1", "Potency": "active: 5.8 µM"},
      {"smiles": "COC(=O)c1ccccc1NC(=O)c1cc2nc(C3CC3)cc(C(F)(F)F)n2n1", "Potency": "inconclusive [inhibitor, single point]"},
      {"smiles": "CCOC(=O)Cn1cnc(-c2ccc([N+](=O)[O-])cc2)c1", "Potency": "inactive"},
      {"smiles": "CC(=O)c1ccc(NC(=O)c2nc(-c3ccccc3)n(-c3ccccc3)n2)cc1", "Potency": "active: 20.6 µM"},
      {"smiles": "COCC(C)n1c(SCC(=O)NC(=O)Nc2ccc3c(c2)OCCO3)nc2ccccc2c1=O", "note": "(stereo not given)", "Potency": "inconclusive [inhibitor, single point]"},
      {"smiles": "CC(=O)c1c(C)[nH]c(C(=O)OC(C)C(=O)Nc2ccc(C)c(S(=O)(=O)N3CCOCC3)c2)c1C", "note": "(stereo not given)", "Potency": "active: 29.1 µM"},
      {"smiles": "COc1cc(OC)c(NS(=O)(=O)c2ccc(Cl)c(C(=O)OC(C)C(=O)N3CCCC3)c2)cc1Cl", "note": "(stereo not given)", "Potency": "active: 20.6 µM"},
      {"smiles": "CC1(C(=O)NCCc2ccccc2)Cc2c(-c3cccc(C(F)(F)F)c3)ccnc2O1", "note": "(stereo not given)", "Potency": "inconclusive [inhibitor, single point]"},
      {"smiles": "CCc1nc2ccc(C(=O)N(CC)CCN(C)C)cn2c1N(C)CCCc1ccccc1", "Potency": "inconclusive [inhibitor, single point]"},
      {"smiles": "C=CCn1c(O)c(N=Nc2ccccc2C)c2ccccc21", "Potency": "inconclusive [inhibitor, single point]"},
      {"smiles": "O=C(CN1CCCC1)Nc1nc(-c2ccc3c(c2)CCN3C(=O)c2ccccc2F)cs1", "Potency": "inconclusive [inhibitor, single point]"},
      {"smiles": "COC(=O)c1ccccc1NC(=O)c1ccc(NC(=O)C2CCCO2)cc1", "note": "(stereo not given)", "Potency": "inconclusive [inhibitor, single point]"},
      {"smiles": "COc1ccc2[nH]cc(/C=C/C(=O)c3ccccc3)c2c1", "Potency": "inconclusive [inhibitor, single point]"},
      {"smiles": "Cc1ccccc1-c1nc(CN2CCC(C(=O)N3CCN(c4ccccn4)CC3)CC2)c(C)o1", "Potency": "inconclusive [inhibitor, single point]"},
      {"smiles": "CC1=C(C(=O)N2CCOCC2)CC(CC(=O)NC2CCCCC2)C(=O)N1Cc1ccc(C(C)(C)C)cc1", "note": "(stereo not given)", "Potency": "active: 20.6 µM"},
      {"smiles": "COc1ccc(N/C=C(\\C#N)S(=O)(=O)c2ccc(OC)cc2)cc1", "Potency": "inconclusive [inhibitor, partial curve]"},
      {"smiles": "COc1cccc(Oc2cnc(N)nc2-c2ccc(OC)cc2O)c1", "Potency": "active: 2.31 µM"},
      {"smiles": "N#Cc1c(-c2ccccc2Cl)cc(-c2ccccc2)nc1Br", "Potency": "inconclusive [inhibitor, partial curve, poor fit]"},
      {"smiles": "CC(C)(C)OC(=O)N1CCC(c2c(C(=O)N3CCCCC3)cnn2-c2ccccc2Cl)CC1", "Potency": "inconclusive [inhibitor, single point]"},
      {"smiles": "C=C(C)C1CC=C(C)/C(=N/NC(=O)c2ccc(NC(=O)c3cccc(C)c3)cc2)C1", "note": "(stereo not given)", "Potency": "active: 18.4 µM"},
      {"smiles": "O=C(O)/C=C/c1cn(Cc2ccccc2Cl)nc1-c1ccccc1", "Potency": "inconclusive [inhibitor, single point]"},
      {"smiles": "COc1ccc(CN=C(C#N)C2=C(O)c3ccccc3C2=O)cc1", "Potency": "inconclusive [inhibitor, single point]"},
      {"smiles": "CCC(=O)Nc1cccc(C(=O)/C=C/c2cccs2)c1", "Potency": "active: 20.6 µM"},
      {"smiles": "C=CC(C)Sc1nc2c(c(=O)n(C)c(=O)n2C)n1Cc1ccccc1Cl", "note": "(stereo not given)", "Potency": "inconclusive [inhibitor, single point]"},
      {"smiles": "COc1cccc(CNC(=O)[C@@H]2CCCN2C(=O)[C@H]2CCCCN2C(=O)c2cccs2)c1", "Potency": "inactive"},
      {"smiles": "COc1ccc(Cl)cc1S(=O)(=O)N1CCN=C1c1ccccc1", "Potency": "inactive"},
      {"smiles": "COC(=O)COc1ccc2c(=O)c(-c3ccccc3)coc2c1", "Potency": "inactive"},
      {"smiles": "CCOC(=O)c1c(C)[nH]c(N=Nc2ccccc2Cl)c1C", "Potency": "inconclusive [inhibitor, partial curve]"}
    ]}
  ]
}
